Results on 43 compounds are retold here after ChEMBL document CHEMBL4888484, “Replenishing the malaria drug discovery pipeline: Screening and hit evaluation of the MMV Hit Generation Library 1 (HGL1) against asexual blood stage Plasmodium falciparum ,using a nano luciferase reporter read-out” (2022).

In general, % Inhibition refers to the change of the read-out against control, counted positive when it falls.

Screen size: about 150,000 compounds; about 540 (0.36%) showed an effect of 50% or more. This is one part of the list.

This test relates to Plasmodium falciparum. The test can be described thus: Primary screen in NF54 nanoGlo assay, in single point, at 2uM, 72h; a lower Z score goes with more inhibition. The test is classed as functional, Erythrocyte. The note with it: timepoint 72 hour.
Take `O=C(Cn1ccnc1C(=O)c1cccnc1)Nc1ccc(Oc2ccccc2)cc1`: the “% Inhibition” value is reported as -12% and the Z score was determined as 1.9.

With `CC1=C(C)CN(C(=O)[C@H]2CCCC(=O)N2)CC1`, the “% Inhibition” value is listed as -14% and the Z score came out at 1.9.

Take `Cc1nccnc1N1CCC(C(=O)O)(n2ccc(C(C)(C)C)n2)CC1`: the “% Inhibition” value was -14% and the Z score stood at 1.82.

As to `CN(C)C[C@@H]1[C@H]2CN(C(=O)NCc3cc(-c4ccc(Cl)cc4)no3)C[C@@H]12`, the “% Inhibition” value is on record as 7% and the Z score was -1.24.

`O=C(NC[C@H]1CCOC1)c1ccc(-c2ccc3c(c2)OC(F)(F)O3)cc1`: the “% Inhibition” value is 12% and the Z score is -1.89.

On to `COC(=O)c1cc2n(n1)C[C@@](C)(C(=O)NC1CCCCC1)N(c1ccc(C)c(C)c1)C2=O`, for which the “% Inhibition” value is listed as 7% and the Z score is on record as -0.85.

`CCN1C(=O)c2c(C(=O)N3CCOCC3)ncn2C[C@@]1(C)C(=O)NCCCOC(C)C`: the “% Inhibition” value was -12% and the Z score was determined as 2.31.

As to `Cc1cc(C)n(S(=O)(=O)c2cc(Cl)ccc2Cl)c(=O)c1C#N`, the “% Inhibition” value is given as -16% and the Z score is on record as 2.82.

`CCOC(=O)c1[nH]c(CN(Cc2ccc(OC)cc2)S(C)(=O)=O)c(C)c1C`: the “% Inhibition” value is listed as -8% and the Z score is on record as 0.76.

As to `Cc1nn2c(=O)[nH]ncc2c1-c1ccc2c(c1)OCCO2`, the “% Inhibition” value was -7% and the Z score was 1.46.

For the compound `Cc1cccc([C@@H]2CC(c3ccc4c(c3)OCO4)=NN2S(C)(=O)=O)c1`, the “% Inhibition” value amounted to 28% and the Z score is -3.13.

Turning to `Cn1cc(C[C@H]2CC(=O)N(Cc3ccc(F)c(Cl)c3)C2=O)cn1`, the “% Inhibition” value is recorded as -1% and the Z score is 0.17.

On to `COc1c[nH]c(C(=O)N2CC(c3cccnc3)C2)cc1=O`, for which the “% Inhibition” value is recorded as -2% and the Z score was 0.3.

Regarding `O=C(Cn1cnc2ccccc21)N1CCC(Oc2ccccn2)CC1`, the “% Inhibition” value is recorded as -4% and the Z score was 0.78.

For the compound `CCOC(=O)c1cn(CCNc2nn3cc(C4CCCC4)nc3s2)cn1`, the “% Inhibition” value is reported as -46% and the Z score turned out to be 5.41.

Consider `CC(C)c1cc(N(C)CCCN2CCOCC2)n[nH]1`, for which the “% Inhibition” value is -10% and the Z score was 1.47.

For `O=C(c1cn2cc(Cl)ccc2n1)N1CCC(c2nccn2CC2CC2)CC1`, the “% Inhibition” value is -25% and the Z score is listed as 2.45.

On to `Cc1cc(CN(C)c2nccc(C(C)C)n2)ccn1`, for which the “% Inhibition” value was -5% and the Z score is reported as 0.54.

As for `Cc1noc(C)c1CCN1CCn2c(nn(CC(=O)N(C)C)c2=O)C1`, the “% Inhibition” value is reported as -4% and the Z score turned out to be 0.44.

As for `Clc1ccc(-c2noc(-c3cccnc3NC[C@H]3CCCO3)n2)cc1`, the “% Inhibition” value is given as -6% and the Z score amounted to 0.93.

For the compound `CCc1nnsc1C(=O)NC[C@H]1COc2ccccc2O1`, the “% Inhibition” value was 12% and the Z score was -2.34.

Take `CCc1nc(C#N)cc(N(C)CCN(C)CCO)n1`: the “% Inhibition” value was -4% and the Z score was 0.84.

`CCc1nc(Cn2ccnc2-c2cccc(-c3ccco3)c2)no1`: the “% Inhibition” value is listed as -6% and the Z score came to 1.13.

On to `COc1ccc(COCC(=O)Nc2cc(C(F)(F)F)n(C)n2)cc1`, for which the “% Inhibition” value is listed as -4% and the Z score amounted to 0.48.

For `CCCc1cc(N2CCN(Cc3cccc(OC)c3F)CC2)nc(C)n1`, the “% Inhibition” value is given as -3% and the Z score is 0.49.

Take `Cc1cc(NC(=O)CCNc2ncccn2)nn1C`: the “% Inhibition” value is recorded as -3% and the Z score worked out at 0.46.

Turning to `CC(C)N1CCc2nc(NC(=O)c3ccc(S(=O)(=O)N4CCOCC4)cc3)sc2C1`, the “% Inhibition” value is -7% and the Z score was found to be 1.11.

Regarding `COc1cc(C)n(CCNC(=O)CCc2ccc(F)c(C)c2)c(=O)c1`, the “% Inhibition” value is -10% and the Z score was determined as 1.94.

As to `O=C(NCCn1ccnc1)Nc1cccc(-c2ccc3c(c2)CCO3)c1`, the “% Inhibition” value is on record as -3% and the Z score amounted to 0.41.

With `CN(CC1CC(O)C1)C(=O)NC1CC(OCc2ccccc2)C1(C)C` (stereo unspecified), the “% Inhibition” value is 1% and the Z score was -0.1.

For the compound `Cc1cn(C2CCCCC2)nc1NC(=O)c1ccc(F)cc1O`, the “% Inhibition” value was 5% and the Z score is -0.7.

Regarding `CC[C@H](NC(=O)c1c(Cl)c(C)nn1C)c1ncnn1CC`, the “% Inhibition” value is recorded as -7% and the Z score was 1.32.

As to `CNC(=O)NC[C@H]1CCN(Cc2ccc(F)cc2F)C[C@H]1N(C)C`, the “% Inhibition” value is recorded as -16% and the Z score is on record as 2.15.

As to `Fc1ccccc1-c1ccc(CN2CCN([C@H]3CCN(CC(F)(F)F)C3)CC2)s1`, the “% Inhibition” value was 7% and the Z score was -0.58.

As for `CC1(C)CN(C(=O)Nc2ccc(N3CCOCC3)c(F)c2)C1(C)C`, the “% Inhibition” value was found to be 1% and the Z score was -0.08.

On to `CC1(C)CN(Cc2nnc(C3CC3)o2)CC[C@]1(C)O`, for which the “% Inhibition” value was -8% and the Z score came to 1.36.

In the case of `O=C1C[C@@H](C(=O)N2C3CCC2CC(CC(F)(F)F)C3)NC(=O)N1` (stereo partly specified), the “% Inhibition” value was 6% and the Z score is on record as -1.23.

In the case of `Cc1nc(CNC(=O)N[C@H](c2cccs2)C(C)(C)C)no1`, the “% Inhibition” value is listed as 3% and the Z score was -0.54.

Take `Cc1nc(C(C)C)sc1-c1nc([C@H]2CCOC2)no1`: the “% Inhibition” value is given as -3% and the Z score came to 0.5.

With `CN1CCCC[C@H]1c1ncnn1Cc1c(F)cccc1Cl`, the “% Inhibition” value is recorded as -17% and the Z score worked out at 2.21.

As to `COC[C@H]1CCCN1C(=O)CCc1nc(C2CC2)no1`, the “% Inhibition” value stood at 4% and the Z score is -0.51.

Turning to `O=C(NCc1nc(C2CC2)no1)NCc1cccs1`, the “% Inhibition” value is given as -3% and the Z score was 0.28.

On to `COc1ccc(-n2c(C[C@@H]3C(=O)N(C)c4ccccc43)nc3ccccc3c2=O)cc1`, for which the “% Inhibition” value is -5% and the Z score is 0.54.
